Data from PubChem BioAssay AID504333 (National Center for Advancing Translational Sciences (NCATS), 2011).
Out of some 360,000 compounds screened, about 16,000 (4.4%) were called active. Inconclusive results, whose numbers are uncertain, are shown with a selection of clear calls. The call rests on the fitted dose curve; in most records, active means well fitted inhibition curve with a large enough effect; inconclusive means small, poorly fitted or top-dose-only effect; inactive means no such curve, though single readings can be large or run the other way. Potencies beside an inconclusive call are fits to weak or partial responses and may not hold up.

Each compound was assayed against Bromodomain adjacent to zinc finger domain protein 2B (Homo sapiens) (UniProt Q9UIF8) (assay: qHTS Assay for Inhibitors of BAZ2B). Details: AlphaScreen BAZ2B-H3K14Ac peptide displacement; series mostly up to 114 µM.
Procedure, shortened: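 In this displacement format the biotinylated H3(5-23) peptide acetylated at Lys14 serves as ligand at 50 nM, with BAZ2B at 50 nM in PBS pH 7.4 containing 0.01% Tween-20. Donor and acceptor beads are 10 ug/mL final.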
Further: nearly all actives have a fitted effect of over 60% in size.
Potency means the concentration at half of the fitted maximal effect; tags describe the fitted curve by direction and shape.

Sequence of UniProt Q9UIF8 (Q9UIF8 whole entry, looked up, the tested form may be a part): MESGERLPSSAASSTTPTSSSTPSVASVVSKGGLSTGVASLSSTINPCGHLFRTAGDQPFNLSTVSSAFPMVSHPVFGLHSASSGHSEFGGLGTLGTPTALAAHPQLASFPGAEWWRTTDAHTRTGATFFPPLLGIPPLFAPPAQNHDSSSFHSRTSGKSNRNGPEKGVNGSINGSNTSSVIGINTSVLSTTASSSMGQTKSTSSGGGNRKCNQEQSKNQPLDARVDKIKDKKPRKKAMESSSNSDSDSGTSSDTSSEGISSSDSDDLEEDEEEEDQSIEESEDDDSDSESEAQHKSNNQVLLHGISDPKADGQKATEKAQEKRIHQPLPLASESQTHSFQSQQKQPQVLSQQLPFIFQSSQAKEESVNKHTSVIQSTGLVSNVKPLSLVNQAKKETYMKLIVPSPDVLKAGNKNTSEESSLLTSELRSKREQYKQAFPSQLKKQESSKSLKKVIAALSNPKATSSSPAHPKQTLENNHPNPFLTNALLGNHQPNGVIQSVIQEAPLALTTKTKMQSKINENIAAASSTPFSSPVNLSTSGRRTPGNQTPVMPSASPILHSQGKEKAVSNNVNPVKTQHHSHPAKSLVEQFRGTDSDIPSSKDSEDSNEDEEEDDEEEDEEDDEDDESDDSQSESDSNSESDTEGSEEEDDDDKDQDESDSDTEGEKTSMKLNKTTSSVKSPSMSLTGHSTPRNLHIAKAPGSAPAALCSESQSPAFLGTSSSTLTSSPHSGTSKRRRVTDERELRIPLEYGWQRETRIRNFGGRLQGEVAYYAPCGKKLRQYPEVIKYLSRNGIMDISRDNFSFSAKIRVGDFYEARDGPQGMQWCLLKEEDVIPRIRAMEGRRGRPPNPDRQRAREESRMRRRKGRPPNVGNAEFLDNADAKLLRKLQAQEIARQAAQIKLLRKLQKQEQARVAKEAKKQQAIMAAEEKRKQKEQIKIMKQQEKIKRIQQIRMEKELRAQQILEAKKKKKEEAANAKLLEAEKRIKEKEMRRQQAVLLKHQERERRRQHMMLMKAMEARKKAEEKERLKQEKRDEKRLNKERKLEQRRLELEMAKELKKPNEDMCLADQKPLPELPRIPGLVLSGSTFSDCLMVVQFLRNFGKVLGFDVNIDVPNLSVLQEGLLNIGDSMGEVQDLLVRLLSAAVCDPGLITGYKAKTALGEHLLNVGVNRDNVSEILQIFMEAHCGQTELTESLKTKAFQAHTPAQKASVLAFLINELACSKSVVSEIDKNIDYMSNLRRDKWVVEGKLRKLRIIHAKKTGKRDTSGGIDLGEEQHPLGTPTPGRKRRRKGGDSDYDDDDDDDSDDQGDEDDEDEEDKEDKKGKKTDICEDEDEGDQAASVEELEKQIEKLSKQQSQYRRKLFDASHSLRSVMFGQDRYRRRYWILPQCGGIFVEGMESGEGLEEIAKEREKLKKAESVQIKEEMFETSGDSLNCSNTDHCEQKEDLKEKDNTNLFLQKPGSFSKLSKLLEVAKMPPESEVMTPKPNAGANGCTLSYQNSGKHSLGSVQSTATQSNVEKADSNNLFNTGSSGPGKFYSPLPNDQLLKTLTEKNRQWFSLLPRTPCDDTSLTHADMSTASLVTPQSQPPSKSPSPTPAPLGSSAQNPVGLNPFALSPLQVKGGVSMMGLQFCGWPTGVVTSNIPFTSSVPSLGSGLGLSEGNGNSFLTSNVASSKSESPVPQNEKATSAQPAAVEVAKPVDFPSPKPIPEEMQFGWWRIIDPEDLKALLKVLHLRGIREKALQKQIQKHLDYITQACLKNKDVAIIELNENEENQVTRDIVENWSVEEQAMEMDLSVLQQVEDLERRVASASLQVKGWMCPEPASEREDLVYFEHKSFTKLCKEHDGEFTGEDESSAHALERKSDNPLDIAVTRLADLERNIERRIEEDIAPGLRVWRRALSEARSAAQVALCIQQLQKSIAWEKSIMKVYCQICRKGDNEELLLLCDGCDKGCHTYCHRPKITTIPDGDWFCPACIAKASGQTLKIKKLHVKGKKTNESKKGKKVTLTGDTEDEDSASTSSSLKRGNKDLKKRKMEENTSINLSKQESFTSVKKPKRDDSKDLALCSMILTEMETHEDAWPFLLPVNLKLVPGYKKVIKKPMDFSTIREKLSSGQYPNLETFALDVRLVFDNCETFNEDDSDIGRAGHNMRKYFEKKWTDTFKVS

How did the Potency turn out when `CN(Cc1ccccc1F)Cc1cc(=O)oc2cc(O)c(Cl)cc12` was run?
Its Potency is “inactive”.

With `O=C(CCN1C(=O)/C(=C/c2ccccc2F)SC1=S)Nc1ccccn1` as the compound, how does the Potency read?
The Potency was inconclusive: 3.16 µM [inhibitor, full curve].

With `Cc1cc(N2CCN(c3cccc(C)c3C)CC2)n2cnnc2n1` as the compound, how does the Potency read?
Its Potency is inconclusive: 89.1 µM [inhibitor, single point].

`C=CCn1cc(/C=C/c2cc[n+](C)cc2)c2ccccc21` was tested. Which Potency did it give?
The Potency was active: 50.1 µM.

For `CCc1nnc(NC(=O)/C=C/c2cccs2)s1`, which Potency is on record?
The Potency was inconclusive: 89.1 µM [inhibitor, single point].

`COc1ccc(OC)c(Cc2nnc(CCC(=O)NC(C3CC3)C3CC3)o2)c1` was tested. Which Potency did it give?
Its Potency is “inactive”.

For `Nc1ccc(N2CCN(c3ccccc3)CC2)c(F)c1`, which Potency is on record?
The Potency was inconclusive: 39.8 µM [inhibitor, partial curve].

How did the Potency turn out when `Cc1c(C(=O)Nc2ccncc2)sc2nc(-c3ccccc3)cn12` was run?
Its Potency is inconclusive: 89.1 µM [inhibitor, single point].

Which Potency does the source give for `Nn1c(=S)[nH]nc(Cc2ccc(O)cc2)c1=O` here?
Its Potency is inconclusive: 89.1 µM [inhibitor, single point].

For `O=C(Nc1ncccc1O)c1ccc(NS(=O)(=O)c2ccc3[nH]c(=O)[nH]c3c2)cc1`, which Potency is on record?
The Potency was active: 79.4 µM.

With `COc1ccc(NC2CCCN(C(=O)CCc3cccc(F)c3)C2)cc1` (centres undefined) as the compound, how does the Potency read?
The Potency was inconclusive: 89.1 µM [inhibitor, single point].

How did the Potency turn out when `Cc1ccc(CNC(=O)N2CCN(c3ccc(C)cc3)CC2)cc1` was run?
Its Potency is “inactive”.

`CCN(CC(=O)Nc1cc(Cl)ccc1C)C(=O)c1nc2nc(C)cc(C)n2n1` was tested. Which Potency did it give?
The Potency was “inactive”.

With `CN(C)c1ccc(NC(=O)Nc2csc3ccccc23)cc1` as the compound, how does the Potency read?
The Potency was active: 35.5 µM.

For `COc1ccc(N2CCN(C(=O)Cc3ccc(Br)cc3)CC2)cc1`, which Potency is on record?
The Potency was inconclusive: 79.4 µM [inhibitor, partial curve].

`c1ccc(-c2nnc(-c3ccco3)o2)cc1` was tested. Which Potency did it give?
The Potency was “inactive”.

Which Potency does the source give for `O=C(O)Cc1sc(Nc2cccc3ccccc23)nc1-c1ccccc1` here?
The Potency was inconclusive: 79.4 µM [inhibitor, single point].

Which Potency does the source give for `CCc1ccc(CNc2ccc3c(c2)ncn3CC)cc1` here?
The Potency was inconclusive: 44.7 µM [inhibitor, partial curve].

Which Potency does the source give for `Cc1ccc(N(CC(=O)NCCc2ccccc2C)S(=O)(=O)N(C)C)cc1` here?
Its Potency is “inactive”.

`COc1cccc(CC2(CO)CCCN(Cc3ccc(OC)c(C)c3OC)C2)c1` (centres undefined) was tested. Which Potency did it give?
The Potency was “inactive”.

Which Potency does the source give for `CCOc1ccc(-c2cn(S(=O)(=O)c3cccc4nsnc34)nc2N)cc1` here?
Its Potency is inconclusive: 35.5 µM [inhibitor, full curve].

`O=[N+]([O-])c1c(Nc2ccccc2O)cc(N2CCOCC2)c2nonc12` was tested. Which Potency did it give?
Its Potency is inconclusive: 89.1 µM [inhibitor, single point].

How did the Potency turn out when `CCOC(=O)N1CCN(C(=O)/C(=C/c2ccc(F)cc2)NC(=O)c2ccccc2)CC1` was run?
Its Potency is “inactive”.

Which Potency does the source give for `COc1ccc(N(CC(=O)Nc2ccc3c(c2)OCO3)S(=O)(=O)c2ccccc2)cc1OC` here?
The Potency was inconclusive: 79.4 µM [inhibitor, partial curve].

With `CC(=O)Nc1sc(C)c(C)c1C(=O)OCCOc1ccccc1` as the compound, how does the Potency read?
The Potency was “inactive”.

With `CCc1c(C)nc2nc(NC(C)=O)[nH]n2c1=O` as the compound, how does the Potency read?
Its Potency is “inactive”.

How did the Potency turn out when `Cc1nn(C(C)CC(=O)O)c(C)c1C` (centres undefined) was run?
The Potency was inconclusive: 79.4 µM [inhibitor, single point].

With `CCCn1c(=O)c2ccccc2n2c(SCCOc3ccc(OC)cc3)nnc12` as the compound, how does the Potency read?
The Potency was “inactive”.

For `Cc1nc(N2CCCC2)ncc1C(=O)NCc1cccc(Cl)c1`, which Potency is on record?
The Potency was “inactive”.

`CNC(=O)COC(=O)c1ccc2c(c1)NC(=O)C1CCCN21` (centres undefined) was tested. Which Potency did it give?
Its Potency is inconclusive: 89.1 µM [inhibitor, single point].

Which Potency does the source give for `CCOc1ccc(N(Cc2cc3ccc(C)cc3[nH]c2=O)S(=O)(=O)c2ccccc2)cc1` here?
The Potency was inconclusive: 28.2 µM [inhibitor, single point].

With `COc1ccc(-c2nc3cc(C(C)C)ccc3o2)cc1NC(=O)c1ccccc1[N+](=O)[O-]` as the compound, how does the Potency read?
Its Potency is “inactive”.

`CC(C)CCOP(=O)(c1ccc(N(C)C)cc1)C(O)c1ccccc1F` (centres undefined) was tested. Which Potency did it give?
The Potency was inconclusive: 44.7 µM [inhibitor, full curve].

`CCn1c(=O)n(CC)c2cc(N3CCCC3)c(NC(=O)c3ccccc3F)cc21` was tested. Which Potency did it give?
Its Potency is inconclusive: 25.1 µM [inhibitor, full curve].

`COc1ccc(/C=N/NC(=O)CCc2c(C)n[nH]c2C)cc1O` was tested. Which Potency did it give?
The Potency was inconclusive: 6.31 µM [inhibitor, single point].

Which Potency does the source give for `CN1C(=O)/C(=C/c2cn(CC(=O)NCc3ccco3)c3ccccc23)NC1=S` here?
The Potency was inconclusive: 56.2 µM [inhibitor, partial curve].

How did the Potency turn out when `COc1ccccc1NC(=O)N1CCN(Cc2ccc3c(c2)OCO3)CC1` was run?
The Potency was active: 50.1 µM.

With `CC(=O)Nc1ccc(NC(=O)C2CCN(c3c(NC(C)=O)c(C)nn3-c3ccccc3)CC2)cc1` as the compound, how does the Potency read?
The Potency was “inactive”.

Which Potency does the source give for `Cc1cc(C)n(CCC(=O)N2CCCC(N3CCN(c4cccc(Cl)c4)CC3)C2)n1` (centres undefined) here?
Its Potency is “inactive”.

Which Potency does the source give for `CC(OC(=O)c1cccc(-n2cnnn2)c1)C(=O)NCc1ccccc1` (centres undefined) here?
Its Potency is “inactive”.

For `Cc1ccc(C2NC(C(=O)O)CS2)cc1` (centres undefined), which Potency is on record?
The Potency was inconclusive: 56.2 µM [inhibitor, single point].

Which Potency does the source give for `CCN(CC)CCOc1cc2c(nn1)Oc1ccccc1N2C` here?
Its Potency is inconclusive: 89.1 µM [inhibitor, single point].

With `CNC(=O)c1c[nH]c2ccc(S(=O)(=O)Nc3cccc(SC)c3)cc2c1=O` as the compound, how does the Potency read?
Its Potency is “inactive”.

Which Potency does the source give for `CCCN1C(=O)/C(=C\C=C2\N(CC)c3ccccc3C2(C)C)SC1=S` here?
Its Potency is active: 3.55 µM.

With `O=C(CCN1C(=O)c2ccccc2S1(=O)=O)Nc1ccc2c(c1)OCCO2` as the compound, how does the Potency read?
Its Potency is “inactive”.

For `C[n+]1ccc(/C=N/Nc2nc(Cl)c(C#N)c(Cl)c2Cl)cc1`, which Potency is on record?
Its Potency is inconclusive: 50.1 µM [inhibitor, partial curve].

Which Potency does the source give for `O=C(Nc1ccc2c(c1)OCO2)c1ccc(Br)o1` here?
The Potency was inconclusive: 3.55 µM [inhibitor, full curve, poor fit].

With `CCC(C(=O)NC(C)(C)C)N(C(=O)Cn1nnc(-c2cccs2)n1)c1cnc2ccccc2c1` (centres undefined) as the compound, how does the Potency read?
Its Potency is inconclusive: 100 µM [inhibitor, single point].

For `COc1ccc(NC(=O)CC2SC(N3CCOCC3)=NC2=O)c(OC)c1` (centres undefined), which Potency is on record?
Its Potency is inconclusive: 70.8 µM [inhibitor, single point].
